Experimental data published in the RNAGym collection of RNA variant scans (doi:10.1093/nar/gkz1192).
Read counts are not given, so values of variants with three or more changes are uncertain.

B1: CPEB3 Ribozyme (parent)
chain: UAACAGGGGGCCACAGCAGAAGCGUUCACGUCGCAGCCCCUGUCAGAUUCUGGUGAAUCUGCGAAUUCUGCUGUAUAUCUC

Variants of: B1
Assay: self-cleavage, relative activity (ratio to wild type); higher = more cleavage; in vitro, sequencing
Outline: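 CPEB3 self-cleaving ribozyme mutant libraries were made by rounds of error-prone PCR, barcoded, and transcribed in vitro with T7 RNA polymerase for 5 hours at 37°C. Cleavage occurred during transcription and a 15 min DNase I step before EDTA stop. RNAs were reverse transcribed with template switching and Illumina-sequenced, with DNA sequencing mapping barcodes to variants. Relative activity is the variant's cleaved/total read fraction divided by wild type's (minimum 5 reads), averaged across three batches.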

Row | Variant | self-cleavage
1 | A18G A28C C29U A57U | 0.27
2 | A18G A28C C38U U43C A64G | 0.06
3 | A18G A28C U31C C32U A45G A65U | 0.04
4 | A18G A28C U78C | 0.24
5 | A18G A28G A35G U76C | 0.6
6 | A18G A28G A45U U48C | 0.17
7 | A18G A28G C68A | 0.05
8 | A18G A28G G33C U72A U74A | 0.18
9 | A18G A28G G36C U48C A57G A65C | 0.09
10 | A18G A28G G42A A47G U48C A57G U76A | 0
11 | A18G A28G U31A | 0.06
12 | A18G A28G U41A A77G U78A | 0.17
13 | A18G A28G U54A C62A U76C | 0.12
14 | A18G A28G U72G | 0.2
15 | A18G A28U C29U U43C U49C A56U U80C | 0.07
16 | A18G A35G A45C | 0.37
17 | A18G A35G A64U | 0.37
18 | A18G A35G A75G C79U | 1.5
19 | A18G A35G C59A U67C U72C | 0.35
20 | A18G A35G C68A U69C | 0.94
21 | A18G A35G C68U U80A | 1.16

Row | Variant | self-cleavage
22 | A18G A35G U43C A57G U72C | 0.64
23 | A18G A35G U48A | 0.23
24 | A18G A35G U48A U49C A56G U58G | 0.31
25 | A18G A35G U66C | 0.66
26 | A18G A35G U72C U78C | 1.12
27 | A18G A35U U78C | 0.15
28 | A18G A45C A56U | 0.14
29 | A18G A45G U67C | 0.17
30 | A18G A45G U76C U78C | 0.51
31 | A18G A45G U78C | 0.39
32 | A18G A47G A64U | 0.11
33 | A18G A47G U60C G70U | 0.1
34 | A18G A47G U67C U72A | 0.15
35 | A18G A47U A57G U69A U72C | 0.1
36 | A18G A56G U60C U78A | 0.23
37 | A18G A56G U69A | 0.36
38 | A18G A56G U69C U78A U80C | 0.84
39 | A18G A56U U60C A64G U80C | 0.06
40 | A18G A57C C68U | 0.34
41 | A18G A57G A75U | 0.6
42 | A18G A57U U69C | 1.06

Row | Variant | self-cleavage
43 | A18G A64G A77G U80C | 0.55
44 | A18G A64G C68A | 0.24
45 | A18G A64G U66C | 0.27
46 | A18G A64G U66C A75G | 0.2
47 | A18G A64G U74C U80C | 0.77
48 | A18G A64G U76C | 0.66
49 | A18G A65U U66C U72G U76C | 0.2
50 | A18G A75G A77G | 0.42
51 | A18G C23A C38G A45U U48C G63A A77G | 0.1
52 | A18G C23A U41C G55C A57G U76A | 0.13
53 | A18G C23G U72A U78C U80A | 0.08
54 | A18G C23U A65G U72C U78C | 0.04
55 | A18G C23U U26A U72A | 0.05
56 | A18G C23U U31A U80G | 0.08
57 | A18G C23U U54A U60A A77G | 0.05
58 | A18G C27A A35G | 0
59 | A18G C27A A56U A57G U66C U69C U72C | 0.12
60 | A18G C27U A47G | 0.49
61 | A18G C27U U31A A56U U60A G61C | 0.09
62 | A18G C29U A35G A45U U48G U69A U78C | 0.06
63 | A18G C29U A45C U60C U66C | 0.11

Row | Variant | self-cleavage
64 | A18G C32U A45G | 0.24
65 | A18G C32U U41C A56U A75G | 0.05
66 | A18G C32U U41G A45U A64U | 0.07
67 | A18G C32U U72A | 0.2
68 | A18G C34A C39G A56G U69A | 0.06
69 | A18G C34U A35G U51A A56G | 0.09
70 | A18G C37U U49A U66C | 0.12
71 | A18G C38A U41C U60G U76C | 0.18
72 | A18G C38U U67C | 0.33
73 | A18G C39U C71A U76C U80C | 0.08
74 | A18G C39U U43G A56U U58A A65C | 0.06
75 | A18G C40A U41G U78C | 0.06
76 | A18G C40U U43C U49A U67C | 0.12
77 | A18G C40U U80A | 0.51
78 | A18G C50A U72A | 0.24
79 | A18G C59U A64U | 0.23
80 | A18G C62G U78C | 0.28
81 | A18G C62U U69A U72C | 0.21
82 | A18G C68U U72C | 0.36
83 | A18G G19A U49C | 0.2
84 | A18G G19U U41C A56C | 0.34
